The term MIC denotes the lowest concentration that inhibits growth of the organism. Lower therefore signals inhibition by little substance.

Converted amounts (≈) assume the structure as drawn.

The assay deals with M. tuberculosis H37Rv. Nature of the assay: MIC by the Alamar Blue method. It is filed as cell-based. The settings on record: Mycobacterium tuberculosis.

Take `CC1COC2(CCN(c3nc(=O)c4cc(C(F)(F)F)cc([N+](=O)[O-])c4s3)CC2)O1` (stereo not shown) [Compound 2, 2-(2-methyl-1,4-dioxa-8-azaspiro[4.5]dec-8-yl)-8-nitro-6-(trifluoromethyl)-1,3-benzothiazin-4-one]: the minimal inhibitory concentration (MIC) was 0.03 µg/mL (≈ 0.0695 µM).

The values are drawn from EP2181998B1, “New benzothiazinone derivative and its use as antibacterial agent” (priority 2006, dated 2007).
